Data reported in PubChem BioAssay AID492947 (National Center for Advancing Translational Sciences (NCATS), 2010).
Among all 330,000 compounds or so, about 80 (0.02%) were called active. This list was built around the results that the source calls inconclusive (neither active nor inactive); the mix of calls is not that of the screen. The call rests on the fitted dose curve; in most records, active means well fitted activation curve with a large enough effect; inconclusive means small, poorly fitted or top-dose-only effect; inactive means flat fitted curve, though single readings scatter. No potency is given beside an inconclusive call; the fits are too rough.

Biological target: Beta-2 adrenergic receptor (Homo sapiens) (UniProt P07550)
Experiment: qHTS assay of beta-arrestin-biased ligands of beta2-adrenergic receptor; further: nearly all actives have a fitted effect of over 65% in size;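 on activation: 0% = DMSO controls and full agonism = EC100 isoproterenol or metaproterenol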
Conditions: beta-arrestin recruitment to beta2AR, cell-based reporter; series mostly up to 46.1 µM; activation: at the top concentration
Procedure, shortened: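 Luminescence from a tTA-responsive luciferase, induced when recombinant beta-arrestin is recruited to recombinant beta2-AR, served as the agonism signal. Cells were exposed to compound for 18 hr at 37 degrees C; titrations spanned up to 46 microM.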
Potency means the concentration at half of the fitted maximal effect; tags describe the fitted curve by direction and shape.

Chain of UniProt P07550 (P07550 whole entry, looked up): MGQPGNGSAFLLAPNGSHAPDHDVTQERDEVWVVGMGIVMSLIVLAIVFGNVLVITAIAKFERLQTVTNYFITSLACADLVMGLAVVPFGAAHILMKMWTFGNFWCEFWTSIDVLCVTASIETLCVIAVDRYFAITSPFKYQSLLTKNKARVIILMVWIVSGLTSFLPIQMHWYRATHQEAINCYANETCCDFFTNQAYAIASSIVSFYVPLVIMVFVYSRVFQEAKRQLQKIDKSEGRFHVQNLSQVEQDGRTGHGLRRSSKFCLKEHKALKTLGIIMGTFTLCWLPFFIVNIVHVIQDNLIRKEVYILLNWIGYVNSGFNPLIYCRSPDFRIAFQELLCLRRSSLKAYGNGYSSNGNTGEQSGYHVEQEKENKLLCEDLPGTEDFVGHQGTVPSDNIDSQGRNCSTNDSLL

SMILES | Potency | activation
O=C1OC(c2ccccc2)=C/C1=C\N1CCOCC1 | inconclusive [rising, single point] | –
Cc1[nH]n(C(N)=S)c(=O)c1N=Nc1ccc2ccccc2c1 | inconclusive [rising, single point] | –
COc1ccc(C(NC(C)=O)c2cc(Cl)c3cccnc3c2O)cc1 (stereo not given) | inconclusive [rising, single point] | –
O=C(Oc1c(CN2CCOCC2)cc(Cl)c2cccnc12)c1ccccc1Cl | active: 3.55 µM | –
COc1ccc(NC(=S)Nc2cccc(C)n2)cc1 | inconclusive [activator, partial curve] | –
Cc1cc(/C=C(\C#N)C(=O)NC2CCCCCC2)c(C)[nH]1 | inconclusive [rising, single point] | –
COc1ccc(-c2cc(C(F)(F)F)nc(SCC(=O)NCc3ccco3)n2)cc1OC | inconclusive [rising, single point] | –
Fc1ccc(CNC(=S)Nc2ccccc2F)cc1 | – | inactive: -0.376%
COc1ccccc1NCC(O)Cn1c2ccccc2c2ccccc21 (stereo not given) | – | inactive: 0.235%
COc1cc(/C=C2\COC/C(=C\c3cc(OC)c(OC)c(OC)c3)C2=O)cc(OC)c1OC | inconclusive [rising, single point] | –
C=CCNC(=S)N/N=C/c1ccc(-c2cc(Cl)ccc2Cl)o1 | inconclusive [rising, single point] | –
Cc1nc(Nc2c(Cl)cccc2Cl)sc1C(=O)Nc1ccccc1 | – | inactive: 0.0487%
CCCCC(=O)NC(c1cccc([N+](=O)[O-])c1)c1c(OC(C)=O)ccc2ccccc12 (stereo not given) | inconclusive [rising, single point] | –
C=CCNC(=S)N/N=C/c1ccc(C(F)(F)F)cc1 | inconclusive [activator, partial curve] | –
Cc1ccc(OCC(=O)NC2=NCCS2)cc1 | – | inactive: -0.566%
Cc1ccc(NC(=S)NCC2CCN(C(C)c3ccccc3)C2)cc1 (stereo not given) | inconclusive [rising, full curve, poor fit] | –
CC(=O)c1ccc(NC(=S)NC(=O)/C=C/c2ccccc2)cc1 | – | inactive: 0.142%
CC1Cc2ccccc2N1C(=S)NC(=O)c1ccc(Cl)cc1Cl (stereo not given) | – | inactive: 0.126%
CCS(=O)(=O)N1Cc2ccccc2CC1C(=O)Nc1nnc(SCc2ccc(F)cc2)s1 (stereo not given) | inconclusive [rising, single point] | –
CC(=O)NC(c1cccs1)c1cc(Br)c2cccnc2c1O (stereo not given) | inconclusive [rising, single point] | –
Fc1cc(F)c2nc(N3CCCCC3)sc2c1 | – | inactive: -0.617%
Cn1c(=S)[nH]c2c(c1=O)C(C)(C)Cc1ccccc1-2 | inconclusive [rising, full curve, poor fit] | –
COc1ccc(C)cc1-n1c(SCC(=O)NC2CC2)nc2ccccc2c1=O | inconclusive [rising, single point] | –
Cc1cccc(NC(=O)COC(=O)c2ccc3c(=O)n4c(nc3c2)CCC4)c1 | – | inactive: 0.414%
O=C(NC(=S)Nc1ccccc1)c1cccs1 | inconclusive [rising, single point] | –

SMILES | Potency | activation
CCCCNc1nc(=S)[nH]c2cc(OC)c(OC)cc12 | – | inactive: 2.96%
O=C(Nc1ccn(Cc2ccc(Cl)cc2)n1)c1ccccc1 | – | inactive: -0.0393%
C=CC[N+](C)(C)CCCNC(=O)/C=N/O | – | inactive: -0.189%
CN(c1ccccc1C(=O)N1CCN(c2cccc(Cl)c2)CC1)S(C)(=O)=O | – | inactive: -0.0492%
O=C(NNC(=S)Nc1ccc(Br)cc1)c1ccccc1Br | inconclusive [rising, full curve, poor fit] | –
COc1ccc(-c2nn(-c3ccccc3)cc2/C=N/Nc2cccc(C(=O)O)c2)cc1 | – | inactive: -0.596%
CCCNC(=O)c1ccc(N2CCC3(CC2)CC(c2cccc(Br)c2)=NO3)c(NC(=O)c2ccc(Br)cc2)c1 | inconclusive [rising, single point] | –
O=C(O)CCCC(=O)Nc1cccc([N+](=O)[O-])c1 | – | inactive: -0.317%
COC(=O)NNC(=O)COc1ccc2ccccc2c1Br | inconclusive [rising, single point] | –
COc1cc(OC)c(C2Nc3cccc4cccc(c34)N2)c(OC)c1 | inconclusive [rising, partial curve, poor fit] | –
CSc1ccc(C(=S)N2CCN(C)CC2)cc1 | – | inactive: -0.43%
COc1ccccc1/C=N/NC(=S)Nc1cccnc1 | inconclusive [activator, partial curve] | –
O=C(NNc1nc2c(F)cc(F)cc2s1)C1COc2ccccc2O1 (stereo not given) | – | inactive: 0.0567%
CCCn1cnc2sc(CC)cc2c1=O | – | inactive: -3.24%
CCn1c(-c2ccc(S(=O)(=O)N3CCOCC3)cc2)csc1=Nc1ccc(C)c(Cl)c1 | – | inactive: -0.132%
O=C(COC(=O)c1ccc[nH]c1=O)NCCc1ccc(F)cc1 | – | inactive: 0.029%
Cc1ccc(CNc2ccc(N3C(=O)CCCC3=O)cc2[N+](=O)[O-])cc1 | inconclusive [rising, single point] | –
CC(/C=N/NC(=O)Cc1cccs1)=C\c1ccccc1 | inconclusive [rising, single point] | –
CC(C)CN1C(=S)SC(C)(C)C1n1oc(=O)n(-c2ccc(Cl)cc2)c1=O (stereo not given) | inconclusive [rising, single point] | –
COc1ccc(C)cc1N(C(=O)c1ccc(C#N)cc1)C1=NC(C)(C)CS1 | – | inactive: -0.266%
CC1CCCCN1C(=S)NC(=O)c1cccs1 (stereo not given) | inconclusive [rising, single point] | –
C=CCOc1ccc2ccccc2c1CNn1c(C)n[nH]c1=S | inconclusive [activator, partial curve] | –
COC(=O)c1scc(C)c1S(=O)(=O)Nc1ccc(C)cc1 | inconclusive [rising, single point] | –
CCCCOc1ccc(NC(=O)CSc2cccc3cccnc23)cc1 | inconclusive [rising, single point] | –
Cc1ccc2nc(NC(=O)COC(=O)c3ccc(Br)o3)sc2c1 | inconclusive [rising, single point] | –
